Measured values from the supplement of paper PMC11417369.
Some of the results follow.

tested on: PfAP2-HC AP2 domain (GST-tagged); assay: gcPBM binding intensity (ln(normalized median fluorescence intensity)); higher = stronger DNA binding
Outline: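 Alexa488 anti-GST antibody, scanned at 488 nm, detected GST-tagged P. falciparum DNA-binding domains that had been expressed in E. coli and incubated for 1 h on an Agilent 4 × 180k array. The array carried primer-extended double-stranded 36-bp intergenic genomic probes and negative controls. Binding intensity is the highest Masliner-normalised natural-log median intensity across replicate spots of either orientation of each probe.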

| Sequence | gcPBM binding intensity (ln) |
| --- | --- |
| TAAAAATAGGAGTGTGTGCACATAAATTATATACTA [GTGCAC_site9405] | 10.2 |
| TTACTTAATAGACACACACACAAAAAAAAAAAAAAA [CACACA_site6572] | 10.1 |
| CACATACATAAATACACACACAAAATAATAAAATAA [CACACA_site5304] | 10.2 |
| AAACAATAAAAGATTACACACATATATAGCATATAT [CACACA_site1698] | 10.1 |
| TATACATAATATATATGTACATATATTCTTTATTTT [XGTACX_site4565] | 9.77 |
| TCAAATAATTTGTTGACACACACACCCACATACATA [CACACA_site8717] | 10.6 |
| ATATTTTTTACTATTACACACAAGGGATTATTATTT [CACACA_site3915] | 9.93 |
| ACCTTATAAAAAAAAAGTACATATATAAATAATAAA [XGTACX_site4338] | 9.58 |
| ATAATATATTTATGTTGTACAAGGAAAATTTTGAAA [XGTACX_site3472] | 9.63 |
| GAAATGGAAAAATATACATGCGCATATAAATTAATA [TGCATGCA_site834] | 9.78 |
| TGGAGGATAGTTCACAGTACCCAGAAACTCTACGGA [XGTACX_site2560] | 9.38 |
| AACCATAAATAATTATGTACTAAAAAAAATATATAT [XGTACX_site3415] | 9.64 |
| TTATTTATGATATATACACACTAACATTATTTATCC [CACACA_site6720] | 9.92 |
| TCTTATATATGCTTAAATATATTATATTTATTTGAA [CACACA_negctrl_site1757] | 9.55 |
| ATCATATGTATGCATACACACAAAAAATTATATATA [CACACA_site398] | 9.82 |
| TATAATGATATAACAACACACATGTATGTATTATTA [CACACA_site230] | 9.98 |
| TTTTTAATATATAAAGATAATAATAAATAAAATTCA [CACACA_negctrl_site657] | 9.39 |
| TATAGATACCTATACACACACACACGGACATATATA [CACACA_site7585] | 10.8 |
| ATATAAAACAACGGGTGTACAAAAAAATAAATAATA [XGTACX_site4094] | 9.86 |

| Sequence | gcPBM binding intensity (ln) |
| --- | --- |
| AAAGAAATGAAATATACACACATACCTATATACATA [CACACA_site7817] | 10.2 |
| TTTTTCTTCTGCATTATGCACACTATAATTCGTTAA [CACACA_site2837] | 9.87 |
| CTGAATGTATATATTTGTACATATATATATATATAT [XGTACX_site5557] | 9.73 |
| GGGTATAATAAAAGCACACACAAAGATATAAATATA [CACACA_site3308] | 10.6 |
| AAAAAAAAAAAACACGCATGTACATAAAAATAATCA [TGCATGCA_site142] | 9.92 |
| TTTTTTTTTTTTAATTAACACACATAAATATATATA [CACACA_site9077] | 9.47 |
| TTAAAATCTTGAAAAGTGCATTATCATTTTGTAACG [GTGCAC_site9447] | 9.44 |
| TATAATGATGATGATAGTACGTATGAGTTCAAAAAA [XGTACX_site3656] | 9.72 |
| TATATATTTATATATGCATGTACATTTTTATTTATT [TGCATGCA_site1048] | 9.86 |
| TAAATCTATATCATCACACACACATACATAAATATA [CACACA_site6228] | 10.2 |
| TAGTATTGTAAAAAAAAAAAAGAAAAAAAAAAAAAA [CACACA_negctrl_site977] | 9.07 |
| AATATATGGTTCCTTGATATTAAATTCAATTTAATG [CACACA_negctrl_site71] | 9.55 |
| TGTGTATATGTGCAAAGTACAAAAAAGAAATTATTT [XGTACX_site7569] | 9.83 |
| GAAAAAAAATCCAAGATGCACTATTATTACAAAAAT [GTGCAC_site9516] | 9.67 |
| GTCAAAAGTTTTTAAGGTACACTTATTTTATTATAA [XGTACX_site7004] | 9.66 |
| ATGTAATATATGCGGAAATATATTCACAAGACGTCA [CACACA_negctrl_site373] | 9.69 |
| CACTAAACATATACACGTACATGCAACGGATTTTTT [XGTACX_site461] | 9.67 |
| ACCTTTATTGTATGAACACACATAAGCTGATACATC [CACACA_site4028] | 9.81 |
| TGGATGTTAATATAGTGTACATTTATAAGTCAGTAT [XGTACX_site2949] | 9.72 |

| Sequence | gcPBM binding intensity (ln) |
| --- | --- |
| GTGGAAAAAAATAATTGTACACAATAATAAATATAT [XGTACX_site2414] | 9.83 |
| TGTATATATCAATGTACACACATGCGTATGTTCGTT [CACACA_site7654] | 10.2 |
| TATAAAAAAAATTGCACACATATTATACAGGACGAC [CACACA_site701] | 10.5 |
| AAAATATATATAACTTGTACATATACATACGTATAT [XGTACX_site4570] | 9.77 |
| TTACATATTATACGAAGTACGTACAAATACTTATAT [XGTACX_site8598] | 9.66 |
| TTGCATTGTCCATGCGCACACACTACTAGAATAATA [CACACA_site3678] | 10 |
| AATTATAAATTGGACACACACATAAAAAATATGTAC [CACACA_site221] | 10.2 |
| TAAAGGAAATAAAAAACATGCAAATATGAAATATAT [TGCATGCA_site745] | 9.73 |
| ATACATAATAACTCCTGTACTTAAAAATGTATATAT [XGTACX_site1071] | 9.6 |
| TAAAAAAAAACATGTGCACACGTTTTATCTACATAA [CACACA_site2336] | 10.4 |
| TCATTTATTGAGGAATGTACACGTAAAATTTAATAA [XGTACX_site4086] | 9.54 |
| ATTTTTTTTTTTTTTTTCTTTTTTCTTCTTTTTTTT [CACACA_negctrl_site1223] | 9.61 |
| ATATATATTATAAAATGTACAAATGTTATATAAAAT [XGTACX_site4750] | 9.85 |
| TTTTTTTTTTTTTTATGTACATATATATATTTTATT [XGTACX_site6915] | 9.76 |
| ACCTTATTTAGTTATAGTACACAAAGTATTAAACAT [XGTACX_site8418] | 9.89 |
| TATATATATTTTTGTGTGCACTATAATATGAAAATA | 9.7 |
| GCGAATAATATGGACATACACACATATACATACATA [CACACA_site2115] | 10 |
| TTTTTTTTTTTCTTCACACACAGTACTACTATTTAT [CACACA_site2409] | 10.1 |
| TTGTTTATTTGTAAAGCTAACAAGAAATGTGAATAT [CACACA_negctrl_site931] | 9.51 |
